B1: KB001 mouse Fab FASEBA VH S56G (Fab, V domains shown)
VH: EVQLKQSGPGLVAPSQSLSITCTVSGFSLSIYSVHWVRQPPGKGLEWLGMIWGGGGSDYNSALKSRLSISKDNSKSQVFLKMNSLQTDDTAMYYCARNGNFYAMDYWGQGTSVTVSS
VL: QIVLTQSPAIMSASLGERVTMTCTASSSVSSSFLHWYQQKPGSSPQLWIYSTSNLASGVPARFSGSGSGTSYSLTISSMEAEDAATYYCHQYHHSPYIYTFGGGTKLEIK
B2: KB001 mouse Fab FASEBA VH G53A (Fab, V domains shown)
VH: EVQLKQSGPGLVAPSQSLSITCTVSGFSLSIYSVHWVRQPPGKGLEWLGMIWAGGSSDYNSALKSRLSISKDNSKSQVFLKMNSLQTDDTAMYYCARNGNFYAMDYWGQGTSVTVSS
VL: QIVLTQSPAIMSASLGERVTMTCTASSSVSSSFLHWYQQKPGSSPQLWIYSTSNLASGVPARFSGSGSGTSYSLTISSMEAEDAATYYCHQYHHSPYIYTFGGGTKLEIK
B3: KB001 mouse Fab FASEBA VH I31Y (Fab, V domains shown)
VH: EVQLKQSGPGLVAPSQSLSITCTVSGFSLSYYSVHWVRQPPGKGLEWLGMIWGGGSSDYNSALKSRLSISKDNSKSQVFLKMNSLQTDDTAMYYCARNGNFYAMDYWGQGTSVTVSS
VL: QIVLTQSPAIMSASLGERVTMTCTASSSVSSSFLHWYQQKPGSSPQLWIYSTSNLASGVPARFSGSGSGTSYSLTISSMEAEDAATYYCHQYHHSPYIYTFGGGTKLEIK
B4: KB001 mouse Fab FASEBA VH S30D (Fab, V domains shown)
VH: EVQLKQSGPGLVAPSQSLSITCTVSGFSLDIYSVHWVRQPPGKGLEWLGMIWGGGSSDYNSALKSRLSISKDNSKSQVFLKMNSLQTDDTAMYYCARNGNFYAMDYWGQGTSVTVSS
VL: QIVLTQSPAIMSASLGERVTMTCTASSSVSSSFLHWYQQKPGSSPQLWIYSTSNLASGVPARFSGSGSGTSYSLTISSMEAEDAATYYCHQYHHSPYIYTFGGGTKLEIK
B5: KB001 mouse Fab FASEBA VH S57P (Fab, V domains shown)
VH: EVQLKQSGPGLVAPSQSLSITCTVSGFSLSIYSVHWVRQPPGKGLEWLGMIWGGGSPDYNSALKSRLSISKDNSKSQVFLKMNSLQTDDTAMYYCARNGNFYAMDYWGQGTSVTVSS
VL: QIVLTQSPAIMSASLGERVTMTCTASSSVSSSFLHWYQQKPGSSPQLWIYSTSNLASGVPARFSGSGSGTSYSLTISSMEAEDAATYYCHQYHHSPYIYTFGGGTKLEIK
B6: KB001 mouse Fab FASEBA VH S61D (Fab, V domains shown)
VH: EVQLKQSGPGLVAPSQSLSITCTVSGFSLSIYSVHWVRQPPGKGLEWLGMIWGGGSSDYNDALKSRLSISKDNSKSQVFLKMNSLQTDDTAMYYCARNGNFYAMDYWGQGTSVTVSS
VL: QIVLTQSPAIMSASLGERVTMTCTASSSVSSSFLHWYQQKPGSSPQLWIYSTSNLASGVPARFSGSGSGTSYSLTISSMEAEDAATYYCHQYHHSPYIYTFGGGTKLEIK
B7: KB001 mouse Fab FASEBA VH S56V (Fab, V domains shown)
VH: EVQLKQSGPGLVAPSQSLSITCTVSGFSLSIYSVHWVRQPPGKGLEWLGMIWGGGVSDYNSALKSRLSISKDNSKSQVFLKMNSLQTDDTAMYYCARNGNFYAMDYWGQGTSVTVSS
VL: QIVLTQSPAIMSASLGERVTMTCTASSSVSSSFLHWYQQKPGSSPQLWIYSTSNLASGVPARFSGSGSGTSYSLTISSMEAEDAATYYCHQYHHSPYIYTFGGGTKLEIK
B8: KB001 mouse Fab FASEBA VH S61E (Fab, V domains shown)
VH: EVQLKQSGPGLVAPSQSLSITCTVSGFSLSIYSVHWVRQPPGKGLEWLGMIWGGGSSDYNEALKSRLSISKDNSKSQVFLKMNSLQTDDTAMYYCARNGNFYAMDYWGQGTSVTVSS
VL: QIVLTQSPAIMSASLGERVTMTCTASSSVSSSFLHWYQQKPGSSPQLWIYSTSNLASGVPARFSGSGSGTSYSLTISSMEAEDAATYYCHQYHHSPYIYTFGGGTKLEIK
B9: KB001 mouse Fab FASEBA VH S57E (Fab, V domains shown)
VH: EVQLKQSGPGLVAPSQSLSITCTVSGFSLSIYSVHWVRQPPGKGLEWLGMIWGGGSEDYNSALKSRLSISKDNSKSQVFLKMNSLQTDDTAMYYCARNGNFYAMDYWGQGTSVTVSS
VL: QIVLTQSPAIMSASLGERVTMTCTASSSVSSSFLHWYQQKPGSSPQLWIYSTSNLASGVPARFSGSGSGTSYSLTISSMEAEDAATYYCHQYHHSPYIYTFGGGTKLEIK
B10: KB001 mouse Fab FASEBA VH S56Q (Fab, V domains shown)
VH: EVQLKQSGPGLVAPSQSLSITCTVSGFSLSIYSVHWVRQPPGKGLEWLGMIWGGGQSDYNSALKSRLSISKDNSKSQVFLKMNSLQTDDTAMYYCARNGNFYAMDYWGQGTSVTVSS
VL: QIVLTQSPAIMSASLGERVTMTCTASSSVSSSFLHWYQQKPGSSPQLWIYSTSNLASGVPARFSGSGSGTSYSLTISSMEAEDAATYYCHQYHHSPYIYTFGGGTKLEIK
B11: KB001 mouse Fab FASEBA VH Y59L (Fab, V domains shown)
VH: EVQLKQSGPGLVAPSQSLSITCTVSGFSLSIYSVHWVRQPPGKGLEWLGMIWGGGSSDLNSALKSRLSISKDNSKSQVFLKMNSLQTDDTAMYYCARNGNFYAMDYWGQGTSVTVSS
VL: QIVLTQSPAIMSASLGERVTMTCTASSSVSSSFLHWYQQKPGSSPQLWIYSTSNLASGVPARFSGSGSGTSYSLTISSMEAEDAATYYCHQYHHSPYIYTFGGGTKLEIK
B12: KB001 mouse Fab FASEBA VH A62T (Fab, V domains shown)
VH: EVQLKQSGPGLVAPSQSLSITCTVSGFSLSIYSVHWVRQPPGKGLEWLGMIWGGGSSDYNSTLKSRLSISKDNSKSQVFLKMNSLQTDDTAMYYCARNGNFYAMDYWGQGTSVTVSS
VL: QIVLTQSPAIMSASLGERVTMTCTASSSVSSSFLHWYQQKPGSSPQLWIYSTSNLASGVPARFSGSGSGTSYSLTISSMEAEDAATYYCHQYHHSPYIYTFGGGTKLEIK
B13: KB001 mouse Fab VL T24S (Fab, V domains shown)
VH: EVQLKQSGPGLVAPSQSLSITCTVSGFSLSIYSVHWVRQPPGKGLEWLGMIWGGGSSDYNSALKSRLSISKDNSKSQVFLKMNSLQTDDTAMYYCARNGNFYAMDYWGQGTSVTVSS
VL: QIVLTQSPAIMSASLGERVTMTCSASSSVSSSFLHWYQQKPGSSPQLWIYSTSNLASGVPARFSGSGSGTSYSLTISSMEAEDAATYYCHQYHHSPYIYTFGGGTKLEIK
B14: KB001 mouse Fab VL S31G (Fab, V domains shown)
VH: EVQLKQSGPGLVAPSQSLSITCTVSGFSLSIYSVHWVRQPPGKGLEWLGMIWGGGSSDYNSALKSRLSISKDNSKSQVFLKMNSLQTDDTAMYYCARNGNFYAMDYWGQGTSVTVSS
VL: QIVLTQSPAIMSASLGERVTMTCTASSSVSGSFLHWYQQKPGSSPQLWIYSTSNLASGVPARFSGSGSGTSYSLTISSMEAEDAATYYCHQYHHSPYIYTFGGGTKLEIK
B15: KB001 mouse Fab VL S31N (Fab, V domains shown)
VH: EVQLKQSGPGLVAPSQSLSITCTVSGFSLSIYSVHWVRQPPGKGLEWLGMIWGGGSSDYNSALKSRLSISKDNSKSQVFLKMNSLQTDDTAMYYCARNGNFYAMDYWGQGTSVTVSS
VL: QIVLTQSPAIMSASLGERVTMTCTASSSVSNSFLHWYQQKPGSSPQLWIYSTSNLASGVPARFSGSGSGTSYSLTISSMEAEDAATYYCHQYHHSPYIYTFGGGTKLEIK
B16: KB001 mouse Fab VL S27A (Fab, V domains shown)
VH: EVQLKQSGPGLVAPSQSLSITCTVSGFSLSIYSVHWVRQPPGKGLEWLGMIWGGGSSDYNSALKSRLSISKDNSKSQVFLKMNSLQTDDTAMYYCARNGNFYAMDYWGQGTSVTVSS
VL: QIVLTQSPAIMSASLGERVTMTCTASASVSSSFLHWYQQKPGSSPQLWIYSTSNLASGVPARFSGSGSGTSYSLTISSMEAEDAATYYCHQYHHSPYIYTFGGGTKLEIK
B17: KB001 mouse Fab VL S27T (Fab, V domains shown)
VH: EVQLKQSGPGLVAPSQSLSITCTVSGFSLSIYSVHWVRQPPGKGLEWLGMIWGGGSSDYNSALKSRLSISKDNSKSQVFLKMNSLQTDDTAMYYCARNGNFYAMDYWGQGTSVTVSS
VL: QIVLTQSPAIMSASLGERVTMTCTASTSVSSSFLHWYQQKPGSSPQLWIYSTSNLASGVPARFSGSGSGTSYSLTISSMEAEDAATYYCHQYHHSPYIYTFGGGTKLEIK

From patent publication US20230365662A1 come the findings set out here.

The source holds more than one record for some entries. Only these are listed. There may be further records. Results that share an entry appear to be repeats (runs, samples, wells or individuals); one of them may be the mean.

The target in one test is HRgpA-6H (Porphyromonas gingivalis) (UniProt P28784). The test is described as follows: ELISA on coated HRgpA-6H. (In general: An ELISA detects its analyte on a solid surface through an enzyme-linked reagent.)
For the molecule B1, the OD450nm was 0.794, 0.823, 0.861, 0.819 [lines of one column] and the Ratio OD(Variant)/OD(WT) is 0.903, 0.936, 0.979, 0.931 [lines of one column]. B2: the OD450nm is 0.664, 0.741, 0.67, 0.699 [lines of one column] and the Ratio OD(Variant)/OD(WT) was 0.834, 0.93, 0.841, 0.878 [lines of one column].

Consider B3, for which the OD450nm was 0.449, 0.436, 0.462, 0.454, 0.466 [lines of one column] and the Ratio OD(Variant)/OD(WT) was 0.89, 0.864, 0.916, 0.9, 0.924 [lines of one column]. For B4, the OD450nm was 0.579, 0.563, 0.617, 0.528, 0.54, 0.552, 0.547, 0.448 [lines of one column] and the Ratio OD(Variant)/OD(WT) was 1.15, 1.12, 1.22, 1.05, 1.07, 1.09, 1.08, 0.888 [lines of one column]. On to B5, for which the OD450nm was 0.789, 0.801, 0.747, 0.724 [lines of one column] and the Ratio OD(Variant)/OD(WT) is 0.897, 0.911, 0.849, 0.823 [lines of one column]. As to B6, the OD450nm is 0.562, 0.547, 0.549, 0.472 [lines of one column]. Take B7: the OD450nm was 0.761, 0.775, 0.777, 0.76 [lines of one column] and the Ratio OD(Variant)/OD(WT) was 0.865, 0.881, 0.883, 0.864 [lines of one column]. With B8, the OD450nm is 0.603, 0.567, 0.588, 0.547 [lines of one column] and the Ratio OD(Variant)/OD(WT) is 1.22, 1.15, 1.19, 1.11 [lines of one column]. Regarding B9, the OD450nm is 0.777, 0.781, 0.723, 0.769 [lines of one column] and the Ratio OD(Variant)/OD(WT) was 0.883, 0.888, 0.822, 0.874 [lines of one column]. For the molecule B10, the OD450nm is 0.718, 0.764, 0.728, 0.775 [lines of one column] and the Ratio OD(Variant)/OD(WT) was 0.816, 0.869, 0.828, 0.881 [lines of one column].

Take B11: the OD450nm was 0.758, 0.775, 0.752, 0.691 [lines of one column] and the Ratio OD(Variant)/OD(WT) was 0.958, 0.98, 0.951, 0.874 [lines of one column]. As for B12, the OD450nm was 0.839, 0.812, 0.782, 0.827, 0.856 [lines of one column] and the Ratio OD(Variant)/OD(WT) is 0.96, 0.929, 0.895, 0.946, 0.979 [lines of one column].

Another test shares this target. The test is described as follows: ELISA, FASEBA Fab on coated HRgpA-6H.
On to B13, for which the OD450nm is 0.822, 0.798, 0.812, 0.704 [lines of one column] and the Ratio OD(Variant)/OD(WT) is 1.07, 1.04, 1.06, 0.915 [lines of one column]. Regarding B14, the OD450nm is 0.864, 0.899, 0.824, 0.776 [lines of one column] and the Ratio OD(Variant)/OD(WT) is 1.02, 1.06, 0.975, 0.918 [lines of one column].

For the molecule B15, the OD450nm is 0.869, 0.791, 0.749, 0.789, 0.769 [lines of one column] and the Ratio OD(Variant)/OD(WT) is 1.03, 0.936, 0.886, 0.934, 0.91 [lines of one column].

For the molecule B16, the OD450nm was 0.816, 0.808, 0.714, 0.722 [lines of one column] and the Ratio OD(Variant)/OD(WT) is 1.09, 1.08, 0.951, 0.962 [lines of one column].

As for B17, the OD450nm was 0.783, 0.702, 0.743, 0.737, 0.71 [lines of one column] and the Ratio OD(Variant)/OD(WT) is 1.04, 0.935, 0.99, 0.982, 0.946 [lines of one column].
